For 61 molecules, inhibition results are on record in PubChem BioAssay AID485344 (National Center for Advancing Translational Sciences (NCATS), 2010).

In all, about 340,000 compounds went through this assay and about 6,900 (2%) were called active. Rule as the data show it: active = inhibition above about 30%; inactive = below that, where a call was filed. The entries are a selection whose mix differs from that of the whole data set. Where no call is shown, the source filed none.

This test concerns the target D(2) dopamine receptor (Homo sapiens) (UniProt P14416). The test can be described thus: HTS Assay for Allosteric Antagonists of the Human D2 Dopamine Receptor: Primary Screen for Antagonists. Also: 0% is about no effect. Particulars: HEK293 TREx D2 cells, calcium flux, dopamine EC80; at 10 µM; stronger effect = higher value. The gist of the method: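 Calcium flux kinetic readout in an inducible HEK293 TREx D2 line plated overnight at 30 C. After 180 s compound exposure, an EC80 dopamine challenge follows with another 180 s kinetic read to detect antagonism.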
UniProt P14416, sequence (P14416 whole entry, looked up): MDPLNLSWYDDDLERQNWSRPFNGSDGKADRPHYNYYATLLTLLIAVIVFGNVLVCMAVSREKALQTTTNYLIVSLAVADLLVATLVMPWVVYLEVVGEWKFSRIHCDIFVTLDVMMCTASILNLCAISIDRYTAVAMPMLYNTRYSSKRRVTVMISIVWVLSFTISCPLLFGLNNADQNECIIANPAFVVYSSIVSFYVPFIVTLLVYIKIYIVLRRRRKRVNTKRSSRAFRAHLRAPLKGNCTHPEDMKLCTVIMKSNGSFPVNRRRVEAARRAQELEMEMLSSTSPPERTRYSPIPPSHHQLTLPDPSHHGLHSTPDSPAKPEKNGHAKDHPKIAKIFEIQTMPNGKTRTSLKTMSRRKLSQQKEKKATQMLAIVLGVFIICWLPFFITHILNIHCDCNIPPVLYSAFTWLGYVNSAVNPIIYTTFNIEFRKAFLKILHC
For the molecule `CCn1nc(C)c(CCN(C)C(=O)Nc2cc(C)cc(C)c2)c1C`, the inhibition is -3.97%.
Turning to `O=C(Nc1cnc(N2CCC(N3CCCCC3)CC2)c(C(=O)O)c1)c1ccc(Br)cc1`, the inhibition was -2.99%.
With `Cc1ccc(CSc2nc3ccc(NC(=O)COc4ccc(F)cc4)cc3s2)cc1` the figure was 9.69%.
On to `O=C(NCCc1cccc(F)c1)C1CCC(=O)N(C2CCCCCC2)C1` (stereo unspecified), for which the inhibition is active: 33.6%.
With `COc1ccc(-n2c(=O)c3c(c4cc(OC)ccc4n3C)n(Cc3ccc(F)cc3Cl)c2=O)cc1`, the inhibition is -5.97%.
The value for `O=C(Nc1ccc(C(=O)NCCCN2CCN(c3ccc(F)cc3)CC2)cc1)C1=CSCCO1` was active: 69.3%.
As for `COc1ccccc1NC(=O)c1c(NC(=O)Cc2ccccc2)sc2c1CCC(C(C)(C)C)C2` (stereo unspecified), the inhibition is -28.2%.
For `CCc1ccc(CNC(=O)Cn2c(-c3cccs3)cc3cc(F)ccc32)cc1`, the inhibition was -15.5%.
The value for `COCCn1ccc2c(OCC(=O)Nc3ccccc3F)cccc2c1=O` was 20.6%; that for `COC(=O)C1=C(C(=O)c2ccc(C)cc2)C(c2ccc(OC)c(OC)c2)n2nnnc2N1` (stereo unspecified) was active: 32.8%; that for `CCOC(=O)C1(CC2CCCCO2)CCN(C(=O)Nc2ccc(C(=O)OC)cc2)CC1` (stereo unspecified) was active: 31.9%.
On to `CCOC(=O)N1CCc2c(sc3c2c(=O)n(CCc2ccccc2)c(=O)n3CC(=O)Nc2cccc(C)c2)C1`, for which the inhibition was -1.76%.
With `CC(C)(C)C1CCc2c(sc3nnn(CCOc4ccccc4)c(=O)c23)C1` (stereo unspecified) the figure was -11%; with `Cc1ccc(C)c(NC(=O)c2nn(C)c3c2CS(=O)(=O)c2ccccc2-3)c1`, -3.9%; with `COc1cc(/C=C/c2nc(C#N)c(NCCc3ccccc3)o2)cc(OC)c1OC`, -5.55%.
With `Cc1ccc(CNC(=O)c2ccc(-c3nc(CS(=O)c4ccccc4)c(C)o3)cc2)cc1` (stereo unspecified), the inhibition is 1.42%.
As for `Cc1cccc(-c2nc(CSCC(=O)NCCc3ccc(Cl)cc3)c(C)o2)c1`, the inhibition stood at 7.74%.
The value for `Cc1ccc(C)c(NC(=O)CN2C(=O)c3cccnc3Oc3ccc(C)cc32)c1` was -6.32%.
For the molecule `Cc1ccc(-c2nn(CC(=O)NC3CCCC3)c3c2cnc2ccccc23)cc1`, the inhibition was found to be 0.196%.
With `CCc1cccc(CC)c1-n1nnc2c(sc3nc(C)cc(C)c32)c1=O` the figure was 15.1%.
As to `Cc1cc(=O)n(Cc2cccc(F)c2)c2c1c(C)nn2-c1cccc(F)c1`, the inhibition was -9.02%.
With `Cc1ccccc1CN1c2ccccc2-c2nc(SCC(N)=O)ncc2S1(=O)=O`, the inhibition is 5.98%.
As to `O=C(CSc1nc(-c2ccc(F)cc2)[nH]c1-c1ccccc1)Nc1ccccc1`, the inhibition was determined as 9.06%.
As to `CCc1ccc(-c2nn(CC(=O)Nc3ccccc3C)c3c2cnc2ccc(C)cc23)cc1`, the inhibition is 13.5%.
`Clc1ccc(OCc2nc3ccccc3n2Cc2ccccc2)c(Cl)c1`: the inhibition worked out at 8.28%.
As for `COc1ccc(OC)c(C2C(C(=O)N3CCCCC3)=C(C)Nc3nc4ccccc4n32)c1` (stereo unspecified), the inhibition is 4.73%.
The value for `Cc1cc(C)c(NC(=O)Cn2c(=O)nc(-c3ccccc3)c3cc(Cl)ccc32)c(C)c1` was 11.2%; that for `CC(C)(C)c1ccc(CN(Cc2ccco2)c2cnc(S(C)(=O)=O)nc2C(=O)Nc2ccc(F)cc2)cc1` was 21.6%; that for `CNC(=O)Cn1c(=O)c2cccn2c2ccc(F)cc21` was -7.86%.
Regarding `Cc1cccc(NC(=O)c2cc(S(=O)(=O)N3CCN(c4ccccc4F)CC3)ccc2F)c1C`, the inhibition amounted to 2.09%.
For the molecule `COc1ccc(CNC(=O)CCn2nc(C)c3c(C)n(-c4ccccc4)nc3c2=O)c(OC)c1`, the inhibition turned out to be 6.63%.
Take `COc1ccc(CNC(=O)c2ccc3nc(CCc4ccccc4)oc3c2)c(OC)c1`: the inhibition is -1.16%.
The value for `CC(C)CNc1ncnc2c1nnn2C` was 5.82%.
`O=C(CCNS(=O)(=O)c1cccc2nsnc12)NCc1ccccc1`: the inhibition turned out to be 4.91%.
For `Cc1c(Cl)cccc1-n1ncc(C(=O)NCc2cccs2)c1C1CCN(C(=O)OC(C)(C)C)CC1`, the inhibition turned out to be 3.85%.
Consider `CCCn1c(N)c(Sc2ccccc2)c(=O)n(CCC)c1=O`, for which the inhibition was active: 49%.
With `Cc1ccc(OC(=O)CSc2nnc(-c3cccs3)o2)cc1C`, the inhibition stood at 7.71%.
In the case of `Cc1ccc(S(=O)(=O)N2CCOC2CNC(=O)C(=O)NCc2ccc3c(c2)OCO3)cc1` (stereo unspecified), the inhibition is active: 66%.
On to `CCOc1ccc(-n2c(SCC(=O)N3CCCCCC3)nc3c([nH]c4ccccc43)c2=O)cc1`, for which the inhibition is -24.9%.
With `CCn1cc(C(=O)NCCc2ccc(OC)c(OC)c2)c(=O)c2cc(S(=O)(=O)N3CCC(C)CC3)ccc21`, the inhibition is -7.17%.
As to `CCOc1ccc(N(CC(=O)Nc2ccccc2CC)S(=O)(=O)c2c(C)[nH]c(=O)[nH]c2=O)cc1`, the inhibition was 9.58%.
On to `Cc1ccc(NC(=O)Cn2c(=O)oc3ccccc32)cc1C`, for which the inhibition is 4.34%.
`Cc1ccc(NC(=O)c2sc3nc[nH]c(=O)c3c2C)cc1Cl`: the inhibition is -24.1%.
For `CCOc1ccccc1NC(=O)Cn1c(=O)n(Cc2ccco2)c(=O)c2ccc(C(=O)NC3CCCC3)cc21`, the inhibition came out at 1.09%.
As to `COc1ccc(Cl)cc1NC(=O)Cn1nc(Cc2ccncc2)c2ccccc2c1=O`, the inhibition is 8.5%.
With `COc1ccccc1NC(=O)N1CCC(CN2CCc3ccccc3C2)CC1`, the inhibition is -5.6%.
Consider `CCc1ccccc1NC(=O)C1CCN(C(=O)N2CC(C)Oc3ccc(Cl)cc32)CC1` (stereo unspecified), for which the inhibition came to 19.3%.
Take `Cc1cc(F)ccc1NC1(c2ccccc2)C(=O)c2ccccc2C1=O`: the inhibition came out at 2.7%.
Turning to `CC(C)Cn1cnc2c(c(-c3ccccc3)c(-c3ccccc3)n2Cc2ccco2)c1=N`, the inhibition is active: 46.4%.
With `Cc1c(-c2nc(-c3ccccc3F)no2)nnn1-c1cc(F)ccc1F` the figure was 5.68%; with `CCCNC(=O)C(C)n1nc(C)c2c(C)n(-c3ccccc3)nc2c1=O` (stereo unspecified), 1.89%.
Take `Cc1ccc(CNC(=O)CSc2c3c(nc4cc(Cl)ccc24)CCCC3)cc1`: the inhibition was -3%.
As for `Cc1ccc(CC(=O)Nc2nncs2)cc1`, the inhibition is active: 47.3%.
Take `CCOC(=O)CSc1nc(-c2ccc(Cl)cc2)cc(C(F)(F)F)c1C#N`: the inhibition is 1.76%.
Turning to `Cc1ccc(C(=O)Oc2c(S(=O)(=O)c3ccccc3)c(C)nn2-c2ccccc2)cc1`, the inhibition stood at 1.75%.
For the molecule `CN1C(=O)c2ccccc2Sc2ccc(NC(=O)NCc3cccc(Cl)c3)cc21`, the inhibition came out at 9.72%.
In the case of `Cc1cn2c(=O)cc(COC(=O)c3cccc(NC(=O)COc4ccccc4C)c3)nc2s1`, the inhibition came out at 15.4%.
Turning to `Cc1ccc(NC(=O)CCNS(=O)(=O)c2cccc3nonc23)cc1Cl`, the inhibition is -4.3%.
Turning to `Cc1ccc(Cc2nc3ccccc3nc2SCC(=O)N2CCCc3ccccc32)cc1`, the inhibition turned out to be 13.9%.
`COc1ccc(-n2c(-c3ccc(C)cc3)cc3c2CC(C)(C)CC3=O)c(OC)c1`: the inhibition is -3.74%.
With `Cc1ccccc1C(=O)NCCc1csc(-c2ccc(C(F)(F)F)cc2)n1` the figure was 2.93%.
